Data on 87 sequences can be found in the supplement of paper PMC11417369.

The list shows a part of the results.

This experiment has as its system PfSIP2 AP2 domain 1 (GST-tagged). In words: gcPBM binding intensity (ln(normalized median fluorescence intensity)); higher = stronger DNA binding. In short, it runs like this: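 Binding intensity is the highest Masliner-normalised natural-log median intensity over replicate spots in either probe orientation. To obtain it, GST-tagged P. falciparum DNA-binding domains made in E. coli were incubated for 1 h on an Agilent 4 × 180k array of primer-extended double-stranded 36-bp intergenic genomic probes plus negative controls. Detection used Alexa488 anti-GST antibody with scanning at 488 nm.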
As for “TAAATTAATACCTATGCACACATTTTTTTTTTTAAA [CACACA_site1238]”, the “gcPBM binding intensity (ln)” value worked out at 7.49.
On to “CTTAAATTTTTAAATACACACATACACCCATACACA [CACACA_site4461]”, for which the “gcPBM binding intensity (ln)” value was determined as 7.54.
Regarding “AAACCCTATTCAATGCAATAATTTTATAATTTTTTT [TGCATGCA_negctrl_site434]”, the “gcPBM binding intensity (ln)” value is 6.91.
The figure for “TTTTTTTTAAATATCACACACATATAATATATTCTA [CACACA_site3668]” is 6.88.
The figure for “TAGCGGCGGTATCATGCACACGTATATATTGTAACA [CACACA_site8453]” is 7.08.
Then “ATAGTTTTATATAAATGTACAAATGATTTCAAATAG [XGTACX_site8236]”, with 7.08; and “AACATGTATATATTATGTACATATGTTAAAATGATA [XGTACX_site6217]”, with 7.24; and “TTTTCTTACACGAATTTTAAATTCAATATTAAACAT [CACACA_negctrl_site286]”, with 7.1.
In the case of “TTACCTTTTTCTAATGGTACACATAAAATATCATTT [XGTACX_site6825]”, the “gcPBM binding intensity (ln)” value turned out to be 6.95.
For the sequence “GAGTTAATTTTTTCGTGTACTTGAAAATATTTTTTT [XGTACX_site6392]”, the “gcPBM binding intensity (ln)” value was found to be 7.21.
For “TTAGCAACTATTACTACACACATTTGTATATAACTT [CACACA_site6850]”, the “gcPBM binding intensity (ln)” value was 7.
Then “GTGGAAATATAACACATTTTTTTTAATAATTATATT [TGCATGCA_negctrl_site522]”, with 6.77; and “TATTTTATGTAAATTGGTACACATATGTCAGTAAAA [XGTACX_site7111]”, with 7.28.
For “GATGCTAAAATTTATACACACAAAAAAAAAAAATTC [CACACA_site3284]”, the “gcPBM binding intensity (ln)” value worked out at 7.
Then “AAAAAAAAAAAATATACACACACACCGACACATAAA [CACACA_site9270]”, with 7.13; and “TTTTGAATATTTGGTCGTACGTAAAAATAGATAATT [XGTACX_site5755]”, with 7.31.
Turning to “TTTCATATTTTGTCCTGTTTTTTTTTTTTTTTTCTT [CACACA_negctrl_site993]”, the “gcPBM binding intensity (ln)” value was found to be 6.74.
The figure for “AAAATATAAAAAGTCACACATATATATATTTATTTA [CACACA_site4872]” is 6.78.
On to “TTGAATGAAAAAATTTGTACTCATATAAATAATTTA [XGTACX_site4628]”, for which the “gcPBM binding intensity (ln)” value came out at 6.85.
As for “CAATAATTTTTTGTGGGTACAAATAATTTTTTAAAT [XGTACX_site2407]”, the “gcPBM binding intensity (ln)” value turned out to be 7.04.
In the case of “AGGAGAAAAGATAAAGACTTCAAGAAAAAAAAATAA [TGCATGCA_negctrl_site258]”, the “gcPBM binding intensity (ln)” value is 6.49.
Then “TAACAAAACCTTATATGTACACACATATACATCACA [XGTACX_site6772]”, with 7.16.
Then “TTAAAAATGAACATATGTACATATATATATATATAT [XGTACX_site7923]”, with 9.39; and “TTATCATTTTAAATCACACACATATATATATATATA [CACACA_site2849]”, with 9.35; and “ACTACAAGGCAATACAGTACATATAAATGTCATAAT [XGTACX_site8468]”, with 6.92.
The figure for “TACCTTTTATTAATGTGTACCTAAAATATAATACTT [XGTACX_site192]” is 7.23; for “AAAAAGGTTATTGGTACACACATATGTATTTATATA [CACACA_site4464]” it is 6.99.
“AAAAGAATTACTTTCACACATATATATCTGTAAATA [CACACA_site5798]”: the “gcPBM binding intensity (ln)” value was determined as 7.01.
In the case of “TACATATTTATATACACACACACCCTAAAAATATAT [CACACA_site6861]”, the “gcPBM binding intensity (ln)” value turned out to be 7.11.
As for “AATAATGAAGCTTATGCACACGTTCATTATTTATAT [CACACA_site5736]”, the “gcPBM binding intensity (ln)” value amounted to 9.71.
The figure for “ATAATTTTTTTTTTTTTTTTTTGAAAGTAGCATATG [CACACA_negctrl_site732]” is 6.77.
On to “AACTTGTGTGGATATTGTACTAACAATATGTATGAT [XGTACX_site6302]”, for which the “gcPBM binding intensity (ln)” value turned out to be 7.29.
For “AATAGTGTATAAATTTGTACATATAATTAAAAGGAA [XGTACX_site1143]”, the “gcPBM binding intensity (ln)” value was determined as 7.34.
As for “AATAACTTTTTGAGATGTACATTTTTAATTCGTAGA [XGTACX_site8455]”, the “gcPBM binding intensity (ln)” value stood at 6.95.
Then “ATTCATAAAAAGAGGTGTACATTAATATAATATATA [XGTACX_site8283]”, with 7.25.
Then “TTATTCGAACAAAGGAAAAAATATATTCAAAGGAAA [TGCATGCA_negctrl_site215]”, with 6.65; and “ACTTTAATAATTCACTTATTTTCTTATTATATTATT [CACACA_negctrl_site556]”, with 7.15.
For the sequence “GGATTTATTTTATATACACACATACCTATATTTATA [CACACA_site7084]”, the “gcPBM binding intensity (ln)” value came out at 6.98.
For “TTTTTAACTAACATATCAATTCCATACGTCGTCAAA [CACACA_negctrl_site560]”, the “gcPBM binding intensity (ln)” value amounted to 6.75.
For the sequence “TTTAAAAATTTGATCAAACACACGTTGCATAAATTA [CACACA_site3945]”, the “gcPBM binding intensity (ln)” value was determined as 6.89.
Take “AGGATATGCAGACACACACACATATAGATTTATATA [CACACA_site7100]”: the “gcPBM binding intensity (ln)” value is 7.08.
The figure for “TCTATATAATACCAATGTACATAGTTTTAAGCATAA [XGTACX_site1889]” is 6.93; for “AAAACAAAAATATAAACACACATACATTGGTTTTCT [CACACA_site5405]” it is 6.87.
“ATAAATTGTAAAATGTGTACGCAGATATTGCGTATT [XGTACX_site332]”: the “gcPBM binding intensity (ln)” value was determined as 7.17.
Consider “ATAATATAAACATACACACACACATATATATATATA [CACACA_site5591]”, for which the “gcPBM binding intensity (ln)” value was 9.27.
As for “TTTTGTCTTCAAATCAAATGTATATAAAAAAAATAC [CACACA_negctrl_site1717]”, the “gcPBM binding intensity (ln)” value worked out at 7.14.
Then “AAAATTAAAATAGTAATACACACTTCATAGGAAATG [CACACA_site1762]”, with 6.6; and “CTTTAATATTTTATTTCACACACATAAATGCCCCAA [CACACA_site8569]”, with 7.43.
The figure for “AACAAGAAATAATCACGTACACATTATAATAACTAA [XGTACX_site8184]” is 7.06.
In the case of “TGATATTATTATAAGGTGCTTAAAAATAAAGATAAT [GTGCAC_site9539]”, the “gcPBM binding intensity (ln)” value stood at 7.78.
The figure for “AAAAAAAAAGATCACACACACATAAATATAAACAAA [CACACA_site5285]” is 6.92; for “AAAAAAAAAAAAAAAAAAAAAAAAAAAAGTTAAAAA [TGCATGCA_negctrl_site74]” it is 8.74.
With “ATATAAAATAATAAGGGTACAGGTCTCTGCGATGTT [XGTACX_site786]”, the “gcPBM binding intensity (ln)” value stood at 6.75.
Consider “TAAAATATTGTTATTACATGCAACCTTATGAAAAAT [TGCATGCA_site706]”, for which the “gcPBM binding intensity (ln)” value came to 7.16.
Take “AGAATTTTAGATTTAGCACACATTTTTTTTTTTTTT [CACACA_site4081]”: the “gcPBM binding intensity (ln)” value was 7.07.
Take “ACTCGCATATTTAAATGTACTTAATTAGAAGAAAAA [XGTACX_site3304]”: the “gcPBM binding intensity (ln)” value was 7.49.
Then “AAGAAAAATATTCGTGTGCACAGAAGTATATGTGTG [GTGCAC_site9814]”, with 8.85; and “TATTGTAAGAAAGGCACACAGATAAAATTATTATAT [CACACA_site2921]”, with 7.01; and “ATCATCTTTATTCAAGTGCACTGAAAATTTTTTATA [GTGCAC_site9801]”, with 10.1.
Then “ATAATTATATGGCTAGCACACAATAAATAATTATAT [CACACA_site3815]”, with 6.99.
As for “ATATAAGTGTATCTAACACACAAATATATAAAAATG [CACACA_site1956]”, the “gcPBM binding intensity (ln)” value amounted to 6.95.
With “ACAAGTTAAAATATTACACACATATAAATATTTATA [CACACA_site7467]”, the “gcPBM binding intensity (ln)” value came out at 7.02.
“AGTAATAGTTTGTGCACACTCAAGTATATCATAGAT [CACACA_site6082]”: the “gcPBM binding intensity (ln)” value was found to be 9.62.
Then “TTTCGCTTTATTTATGCATGCAAATAAGTTGATATT [TGCATGCA_site724]”, with 7.16.
The figure for “ATTTTTGTAAATACATGTACATATATATGCATATCC [XGTACX_site6353]” is 7.33; for “TACATATATACATACACACACATATAACCAATGTAG [CACACA_site2192]” it is 7.14.
Then “AAATTAATGAAATATACACACATATATAAATATATA [CACACA_site4378]”, with 6.89; and “AAATTTTTTAATTTTTCTCATTTAATTTAAAAATTA [GTGCAC_negctrl_site155]”, with 6.69.
In the case of AAATTAAAGATAAAAGTGCAAAATTATAAATTTATT, the “gcPBM binding intensity (ln)” value amounted to 7.97.
The figure for “AAAAGTATATATTCAGTGCATAGTCTTTAAATATAA [GTGCAC_site9522]” is 8.15; for “ATAAGCATCTGGATATGTACTTATTCCTTTAAAGAT [XGTACX_site6225]” it is 7.04; for “TATATATAACATTGTACACACAAAGAAATAATATTA [CACACA_site3035]” it is 7.01.
Then “ATAAAAAAGCAACATCATATGTTTTTATAGAGTATT [CACACA_negctrl_site745]”, with 6.76.
The figure for “AACAAGTTGCATGGTGCACACATGTATTTATATCTA [CACACA_site5414]” is 11.8.
Consider “TATTAAAAATATTATGTACACACATTTTAGATATTT [CACACA_site8549]”, for which the “gcPBM binding intensity (ln)” value stood at 7.02.
For the sequence “ATATAAATAAAAAAAAAAAAAAAAAAAAAAAAAAAA [CACACA_negctrl_site972]”, the “gcPBM binding intensity (ln)” value stood at 6.84.
For the sequence “TATGCTACATTATATGTACACACATATACATATATA [CACACA_site8199]”, the “gcPBM binding intensity (ln)” value was 7.1.
Take “ATTTATACGTAATATGCATAAATATAAATATATATA [XGTACX_negctrl_site133]”: the “gcPBM binding intensity (ln)” value came out at 7.4.
Turning to “TTAAAATTTTAAAAATTTTAATTTTACAAAAAAAAT [TGCATGCA_negctrl_site227]”, the “gcPBM binding intensity (ln)” value was determined as 6.69.
The figure for “TTTCTTTCTTTCTTTTTTTAAATATTTTTTAAAAAT [TGCATGCA_negctrl_site206]” is 7.26; for “CTAAATATATAAAAAAGTACAAAATAAATAATAATT [XGTACX_site2442]” it is 7.01.
On to “TATATATTATGACCACCACACACCTATACACATAAC [CACACA_site8773]”, for which the “gcPBM binding intensity (ln)” value came to 7.3.
Regarding “TATTTCTGATTATTTTGTACACATTATATATAATGC [XGTACX_site6990]”, the “gcPBM binding intensity (ln)” value came to 7.13.
For “AATATAAACAGACACACACACATATAGATTTATATT [CACACA_site7382]”, the “gcPBM binding intensity (ln)” value came to 7.1.
The figure for “GGATAGATAATAGGGGGTACAAATATACATACATAT [XGTACX_site5089]” is 8.24; for “TTTTAATGAAAACACACACACACATATATATATATA [CACACA_site5295]” it is 9.74; for “GAAAATAGAAAAAGCACACATATATTTTGGAATGTA [CACACA_site551]” it is 6.96.
